Reference: article PMC3240821 (Structure (London, England : 1993), 2011)

Test system: E. coli (strain BL21(DE3)-RIL)
Assay: Bacterial growth inhibition assay, E. coli
Assay type: cell-based, Escherichia coli
Conditions: 10 μM protein, M9 minimal media, OD600 after 18 hours

B1: K125A/K134A Scn mutant (protein, UniProt P80188 21-198, looked up, variant K125A K134A)
Neutrophil …: QDSTSDLIPAPPLSKVPLQQNFQDNQFQGKWYVVGLAGNAILREDKDPQKMYATIYELKEDKSYNVTSVLFRKKKCDYWIRTFVPGCQPGEFTLGNIKSYPGLTSYLVRVVSTNYNQHAMVFFKAVSQNREYFAITLYGRTKELTSELKENFIRFSKSLGLPENHIVFPVPIDQCIDG
- bacteriostatic effect on E. coli growth: ablates in vitro bacteriostatic activity

B2: Scn: mammalian Siderocalin, family archetype lipocalin (protein, UniProt P80188 21-198, looked up)
Neutrophil …: QDSTSDLIPAPPLSKVPLQQNFQDNQFQGKWYVVGLAGNAILREDKDPQKMYATIYELKEDKSYNVTSVLFRKKKCDYWIRTFVPGCQPGEFTLGNIKSYPGLTSYLVRVVSTNYNQHAMVFFKKVSQNREYFKITLYGRTKELTSELKENFIRFSKSLGLPENHIVFPVPIDQCIDG
- bacteriostatic effect on E. coli growth: bacteriostatic
